From publication PMC7282676
Results are given in words; binding and its absence hold for the method and conditions named. For some of these results: In cells and extracts the contact can be indirect. Some entries that bind do so weakly or less than the wild type.

By UniProt entry, the sequences of proteins in these tests, tags left out. Where a name states a change or a piece, a line headed by the entry shows the natural chain unless it says otherwise. Residues count along the entry.
UniProt Q9VT57: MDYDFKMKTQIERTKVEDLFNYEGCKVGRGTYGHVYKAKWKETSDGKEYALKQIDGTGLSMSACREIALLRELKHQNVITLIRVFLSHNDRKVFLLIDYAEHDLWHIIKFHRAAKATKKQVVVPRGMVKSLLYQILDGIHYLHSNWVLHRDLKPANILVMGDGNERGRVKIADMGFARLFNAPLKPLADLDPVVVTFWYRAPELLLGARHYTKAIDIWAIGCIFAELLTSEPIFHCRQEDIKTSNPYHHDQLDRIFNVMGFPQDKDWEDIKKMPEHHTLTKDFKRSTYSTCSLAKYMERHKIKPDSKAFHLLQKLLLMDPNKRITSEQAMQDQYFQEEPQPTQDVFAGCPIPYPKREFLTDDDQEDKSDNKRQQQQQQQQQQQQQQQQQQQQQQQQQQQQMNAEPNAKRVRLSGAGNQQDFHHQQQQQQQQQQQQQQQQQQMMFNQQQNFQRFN
UniProt P42003: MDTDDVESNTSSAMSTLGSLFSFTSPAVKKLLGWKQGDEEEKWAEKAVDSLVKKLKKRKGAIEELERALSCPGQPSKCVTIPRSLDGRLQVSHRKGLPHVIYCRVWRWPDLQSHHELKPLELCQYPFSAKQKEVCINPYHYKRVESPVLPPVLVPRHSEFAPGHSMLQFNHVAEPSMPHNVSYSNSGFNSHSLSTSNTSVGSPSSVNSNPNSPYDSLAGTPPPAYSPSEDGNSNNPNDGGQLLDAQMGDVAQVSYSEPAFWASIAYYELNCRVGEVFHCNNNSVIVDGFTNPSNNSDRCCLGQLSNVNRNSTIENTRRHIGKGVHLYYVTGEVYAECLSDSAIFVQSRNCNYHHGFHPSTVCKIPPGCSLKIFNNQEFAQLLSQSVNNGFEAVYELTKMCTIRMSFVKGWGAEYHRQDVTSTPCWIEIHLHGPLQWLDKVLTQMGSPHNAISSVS
BD-Mad-N2 (Mad-N2 fragment, AA1-230, as yeast two-hybrid bait): residues 1-230 of P42003
BD-Mad-N1 (Mad-N1 fragment, AA1-150, as yeast two-hybrid bait): residues 1-150 of P42003

Columns and labels:
[1] = target: GST-CDK8 (full-length Drosophila CDK8 with an N-terminal GST tag) (Drosophila) (UniProt Q9VT57); assay: pull-down; GST-CDK8 on Glutathione Sepharose 4B beads (50 uL, 0.5-1 ug protein) mixed with 500 uL E. coli cell lysate of His-tagged Mad fragments, 4°C, 3 hours; 20mM Tris-HCl pH 7.5, 10mM MgCl2, 100mM NaCl, 1mM DTT, 0.1% NP-40; Western blot with anti-His; only the target purified
[2] = target: BD-Mad-N1 (Mad-N1 fragment, AA1-150, as yeast two-hybrid bait) (Drosophila) (UniProt P42003); assay: two-hybrid; AH109 yeast; Mad fragments as GAL4-DNA-binding domain bait, full-length CDK8 as GAL4-activation domain prey; growth on SD/-Leu/-Trp/-His
[3] = target: BD-Mad-N2 (Mad-N2 fragment, AA1-230, as yeast two-hybrid bait) (Drosophila) (UniProt P42003); assay: as above

Substance	binding [1]	binding [2]	binding [3]
His-tagged full length Mad (Mad-FL, AA1-455) (from UniProt P42003 1-455)	binds		
His-tagged Mad-C1 fragment (AA231-455) (from UniProt P42003 231-455) (domain or fragment)	no binding		
His-tagged Mad-C2 fragment (AA151-455) (from UniProt P42003 151-455) (domain or fragment)	binds		

The next lines start with the values.

binding [1]	binding [2]	binding [3]	Substance
binds			His-tagged Mad-N2 fragment (AA1-230) (from UniProt P42003 1-230) (domain or fragment)
no binding			His-tagged Mad-N1 fragment (AA1-150) (from UniProt P42003 1-150) (domain or fragment)
	no binding	binds	AD-CDK8 (full-length CDK8 as yeast two-hybrid prey) (from UniProt Q9VT57 1-454) (enzyme)
